Patent US20080045697A1 (Genentech, published 2008)

Target: T1, complement C3b (UniProt P01024 23-667; P01024 fragment)
T1 construct: range 1-645;range 729-1641; The residue numbers seem to count on C3 without its signal peptide
Test: crystal structure of the complex
From the text: After refinement applying non-crystallographic symmetry restraints the final Rcryst and Rfree were 23.7% and 29.7%, respectively. Crystals of the C3b:CRIg complex diffracted to 4.1 Å resolution, belonged to space group C222₁ with cell parameters of a=97.6 Å, b=255.7 Å and c=180.3 Å. After molecular replacement using the C3c:CRIg complex, models of the CUB domain (pdb code 2A73) and the TED domain (1C3D) were manually docked in the electron density map. After rigid body refinement, clear density for the regions linking the TED and CUB domains as well as two glycosylation sites had interpretable density and could be fitted into the electron density. The final model includes a complex of CRIg and C3b without the C345C domain; the latter domain has very weak density and was included in the model with occupancies set to 0.0 to for FIG. 1. The final Rcryst and Rfree were 25.2% and 33.3% respectively.
It has been recently determined that the complement receptor CRIg forms complexes with C3b and iC3b, yet is unable to bind the parent molecule C3 (K. Y. Helmy et al., Cell 124, 915 (2006)). To better understand the structural basis for the selectivity of CRIg, the crystal structure of CRIg in its unbound state was determined at high resolution as well as in complex with C3b and C3c (4.1 Å and 3.2 Å resolution, respectively). […]

T1 sequence (P01024 23-667 limits assumed, chain 1 of 2): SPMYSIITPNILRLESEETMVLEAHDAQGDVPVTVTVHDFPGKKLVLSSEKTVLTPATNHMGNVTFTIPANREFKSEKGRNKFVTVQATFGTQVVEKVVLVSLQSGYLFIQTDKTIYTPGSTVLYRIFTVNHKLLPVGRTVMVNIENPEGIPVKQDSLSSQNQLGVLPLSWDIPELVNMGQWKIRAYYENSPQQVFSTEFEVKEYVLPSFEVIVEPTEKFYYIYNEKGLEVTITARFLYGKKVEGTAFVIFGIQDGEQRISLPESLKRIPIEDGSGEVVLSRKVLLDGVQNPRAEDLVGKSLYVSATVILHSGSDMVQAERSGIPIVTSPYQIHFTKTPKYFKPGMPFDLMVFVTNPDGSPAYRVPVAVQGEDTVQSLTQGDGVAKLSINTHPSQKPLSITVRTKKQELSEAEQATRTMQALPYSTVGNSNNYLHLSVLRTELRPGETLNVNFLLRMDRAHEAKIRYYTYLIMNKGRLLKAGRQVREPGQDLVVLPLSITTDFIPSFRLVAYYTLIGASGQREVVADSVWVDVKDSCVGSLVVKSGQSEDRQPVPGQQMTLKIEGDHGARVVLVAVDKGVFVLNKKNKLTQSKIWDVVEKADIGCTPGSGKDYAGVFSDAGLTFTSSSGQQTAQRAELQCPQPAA
T1 sequence (P01024 751-1663 limits assumed, chain 2 of 2): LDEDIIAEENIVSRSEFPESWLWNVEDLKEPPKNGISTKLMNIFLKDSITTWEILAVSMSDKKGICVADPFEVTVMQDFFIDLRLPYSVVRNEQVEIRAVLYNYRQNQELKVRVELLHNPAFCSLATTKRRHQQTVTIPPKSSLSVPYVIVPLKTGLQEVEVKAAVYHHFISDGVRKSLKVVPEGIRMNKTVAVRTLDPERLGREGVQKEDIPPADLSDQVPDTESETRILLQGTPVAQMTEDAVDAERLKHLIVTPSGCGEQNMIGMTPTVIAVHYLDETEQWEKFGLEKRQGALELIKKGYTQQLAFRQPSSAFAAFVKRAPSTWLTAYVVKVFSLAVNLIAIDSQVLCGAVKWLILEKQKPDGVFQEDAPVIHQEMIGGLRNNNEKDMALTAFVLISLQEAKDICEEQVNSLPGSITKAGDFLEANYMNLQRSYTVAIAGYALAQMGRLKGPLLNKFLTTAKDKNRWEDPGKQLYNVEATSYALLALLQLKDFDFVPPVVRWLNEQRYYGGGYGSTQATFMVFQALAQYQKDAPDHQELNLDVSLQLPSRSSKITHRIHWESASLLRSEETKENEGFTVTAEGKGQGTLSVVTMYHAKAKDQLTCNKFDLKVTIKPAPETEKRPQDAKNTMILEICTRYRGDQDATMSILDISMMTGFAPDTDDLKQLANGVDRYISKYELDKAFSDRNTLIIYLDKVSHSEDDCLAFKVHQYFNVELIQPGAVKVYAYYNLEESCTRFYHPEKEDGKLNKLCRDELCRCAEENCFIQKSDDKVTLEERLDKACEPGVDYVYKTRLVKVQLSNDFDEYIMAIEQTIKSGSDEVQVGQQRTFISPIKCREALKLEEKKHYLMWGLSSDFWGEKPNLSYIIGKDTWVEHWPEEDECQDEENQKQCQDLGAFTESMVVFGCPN

binding result: binds
B1: CRIg, […] of mature human CRIg of SEQ ID NO: 2 (SEQ ID NO: 8) (receptor)
chain: not shown
notes: Made in pET28b with an N-terminal His-tag and thrombin site; the tag was cut off with thrombin before use; Range […] counts on the mature protein; also called purified CRIg; N-terminal domain of CRIg
